# From the supplement of paper PMC8728848
# The other results are listed elsewhere or left out.
# B1: LecRKVI.2 (protein)
# chain: RTTTNFAFRGFNGNQSKIRIEGAAMIKPDGLLRLTDRKSNVTGTAFYHKPVRLLNRNSTNVTIRSFSTSFVFVIIPSSSSNKGFGFTFTLSPTPYRLNAGSAQYLGVFNKENNGDPRNHVFAVEFDTVQGSRDDNTDRIGNDIGLNYNSRTSDLQEPVVYYNNDDHNKKEDFQLESGNPIQALLEYDGATQMLNVTVYPARLGFKPTKPLISQHVPKLLEIVQEEMYVGFTASTGKGQSSAHYVMGWSFSSGGERPIADVLILSELPPPPPNKAKKEGLNS
# Assays:
# Assay in all cases: glycan array binding signal (z-score within array); higher = stronger binding
# Details in all cases: glycan notation: IUPAC condensed, linker removed
# [1] = target: Neu5Ac(a2-6)Gal(b1-4)GlcNAc(b1-2)Man(a1-3)[Neu5Ac(a2-3)Gal(b1-4)GlcNAc(b1-2)Man(a1-6)]Man(b1-4)GlcNAc(b1-4)GlcNAc
# Outline: (§1)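 The binding signal is a Z-score computed within each array. Data were drawn from 3228 arrays in the Consortium for Functional Glycomics database, restricted to those with a known protein sequence. Scores were averaged over arrays of the same protein sequence at different concentrations or buffers, and over linkers, and negative values can be taken as non-binding.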
# [2] = target: Neu5Ac(a2-6)Gal(b1-4)GlcNAc(b1-2)Man(a1-3)[Neu5Ac(a2-6)Gal(b1-4)GlcNAc(b1-2)Man(a1-6)]Man(b1-4)GlcNAc(b1-4)GlcNAc
# Outline: as §1
# [3] = target: Neu5Ac(a2-6)Gal(b1-4)GlcNAc(b1-2)Man(a1-3)[Neu5Ac(a2-6)Gal(b1-4)GlcNAc(b1-2)Man(a1-6)]Man(b1-4)GlcNAc(b1-4)[Fuc(a1-6)]GlcNAc
# Outline: as §1
# [4] = target: Neu5Ac(a2-6)Gal(b1-4)GlcNAc(b1-2)Man(a1-6)Man(b1-4)GlcNAc(b1-4)GlcNAc
# Outline: as §1
# [5] = target: Neu5Ac(a2-6)Gal(b1-4)GlcNAc(b1-2)Man(a1-6)[Gal(b1-4)GlcNAc(b1-2)Man(a1-3)]Man(b1-4)GlcNAc(b1-4)GlcNAc
# Outline: as §1
# [6] = target: Neu5Ac(a2-6)Gal(b1-4)GlcNAc(b1-2)Man(a1-6)[GlcNAc(b1-2)Man(a1-3)]Man(b1-4)GlcNAc(b1-4)GlcNAc
# Outline: as §1
# [7] = target: Neu5Ac(a2-6)Gal(b1-4)GlcNAc(b1-2)Man(a1-6)[Man(a1-3)]Man(b1-4)GlcNAc(b1-4)GlcNAc
# Outline: as §1
# [8] = target: Neu5Ac(a2-6)Gal(b1-4)GlcNAc(b1-2)[Neu5Ac(a2-6)Gal(b1-4)GlcNAc(b1-4)]Man(a1-3)[GlcNAc(b1-4)][Neu5Ac(a2-6)Gal(b1-4)GlcNAc(b1-2)[Neu5Ac(a2-6)Gal(b1-4)GlcNAc(b1-6)]Man(a1-6)]Man(b1-4)GlcNAc(b1-4)GlcNAc
# Outline: as §1
# [9] = target: Neu5Ac(a2-6)Gal(b1-4)GlcNAc(b1-2)[Neu5Ac(a2-6)Gal(b1-4)GlcNAc(b1-4)]Man(a1-3)[GlcNAc(b1-4)][Neu5Ac(a2-6)Gal(b1-4)GlcNAc(b1-4)Man(a1-6)]Man(b1-4)GlcNAc(b1-4)GlcNAc
# Outline: as §1
# [10] = target: Neu5Ac(a2-6)Gal(b1-4)GlcNAc(b1-2)[Neu5Ac(a2-6)Gal(b1-4)GlcNAc(b1-6)]Man(a1-6)[Neu5Ac(a2-6)Gal(b1-4)GlcNAc(b1-2)Man(a1-3)][GlcNAc(b1-4)]Man(b1-4)GlcNAc(b1-4)GlcNAc
# Outline: as §1
# [11] = target: Neu5Ac(a2-6)Gal(b1-4)GlcNAc(b1-3)Gal(b1-3)GlcNAc
# Outline: as §1
# [12] = target: Neu5Ac(a2-6)Gal(b1-4)GlcNAc(b1-3)Gal(b1-4)GlcNAc
# Outline: as §1
# [13] = target: Neu5Ac(a2-6)Gal(b1-4)GlcNAc(b1-3)Gal(b1-4)GlcNAc(b1-2)Man(a1-3)[Neu5Ac(a2-6)Gal(b1-4)GlcNAc(b1-3)Gal(b1-4)GlcNAc(b1-2)Man(a1-6)]GalNAc
# Outline: as §1
# [14] = target: Neu5Ac(a2-6)Gal(b1-4)GlcNAc(b1-3)Gal(b1-4)GlcNAc(b1-3)Gal(b1-4)GlcNAc
# Outline: as §1
# [15] = target: Neu5Ac(a2-6)Gal(b1-4)GlcNAc(b1-3)Gal(b1-4)GlcNAc(b1-3)Gal(b1-4)GlcNAc(b1-2)Man(a1-3)[Neu5Ac(a2-6)Gal(b1-4)GlcNAc(b1-3)Gal(b1-4)GlcNAc(b1-3)Gal(b1-4)GlcNAc(b1-2)Man(a1-6)]GalNAc
# Outline: as §1
# [16] = target: Neu5Ac(a2-6)Gal(b1-4)GlcNAc(b1-3)Gal(b1-4)GlcNAc(b1-3)GalNAc
# Outline: as §1
# [17] = target: Neu5Ac(a2-6)Gal(b1-4)GlcNAc(b1-3)Gal(b1-4)GlcNAc(b1-3)[Neu5Ac(a2-6)Gal(b1-4)GlcNAc(b1-3)Gal(b1-4)GlcNAc(b1-6)]GalNAc
# Outline: as §1
# [18] = target: Neu5Ac(a2-6)Gal(b1-4)GlcNAc(b1-3)Gal(b1-4)GlcNAc(b1-6)[Gal(b1-3)]GalNAc
# Outline: as §1
# [19] = target: Neu5Ac(a2-6)Gal(b1-4)GlcNAc(b1-3)Gal(b1-4)[Fuc(a1-3)]GlcNAc(b1-3)Gal(b1-4)[Fuc(a1-3)]GlcNAc
# Outline: as §1
# [20] = target: Neu5Ac(a2-6)Gal(b1-4)GlcNAc(b1-3)GalNAc
# Outline: as §1
# [21] = target: Neu5Ac(a2-6)Gal(b1-4)GlcNAc(b1-3)[Neu5Ac(a2-6)Gal(b1-4)GlcNAc(b1-6)]GalNAc
# Outline: as §1
# [22] = target: Neu5Ac(a2-6)Gal(b1-4)GlcNAc(b1-6)GalNAc
# Outline: as §1
# [23] = target: Neu5Ac(a2-6)Gal(b1-4)GlcNAc(b1-6)[Gal(b1-3)GlcNAc(b1-3)]Gal(b1-4)Glc
# Outline: as §1
# [24] = target: Neu5Ac(a2-6)Gal(b1-4)GlcNAc(b1-6)[Gal(b1-3)]GalNAc
# Outline: as §1
# [25] = target: Neu5Ac(a2-6)Gal(b1-4)GlcNAc6S
# Outline: as §1
# [26] = target: Neu5Ac(a2-6)GalNAc
# Outline: as §1
# [27] = target: Neu5Ac(a2-6)GalNAc(b1-4)GlcNAc
# Outline: as §1
# [28] = target: Neu5Ac(a2-6)GalNAc(b1-4)GlcNAc6S
# Outline: as §1
# [29] = target: Neu5Ac(a2-6)GlcNAc(b1-4)GlcNAc
# Outline: as §1
# [30] = target: Neu5Ac(a2-6)GlcNAc(b1-4)GlcNAc(b1-4)GlcNAc
# Outline: as §1
binder,measurement,setting,value
B1,glycan array binding signal (z-score),[1],-0.387
same,glycan array binding signal (z-score),[2],0.07
same,glycan array binding signal (z-score),[3],-0.24
same,glycan array binding signal (z-score),[4],-0.281
same,glycan array binding signal (z-score),[5],0.669
same,glycan array binding signal (z-score),[6],-0.347
same,glycan array binding signal (z-score),[7],-0.381
same,glycan array binding signal (z-score),[8],-0.276
same,glycan array binding signal (z-score),[9],-0.327
same,glycan array binding signal (z-score),[10],-0.401
same,glycan array binding signal (z-score),[11],-0.447
same,glycan array binding signal (z-score),[12],-0.367
same,glycan array binding signal (z-score),[13],3.81
same,glycan array binding signal (z-score),[14],-0.339
same,glycan array binding signal (z-score),[15],0.443
same,glycan array binding signal (z-score),[16],-0.398
same,glycan array binding signal (z-score),[17],-0.215
same,glycan array binding signal (z-score),[18],1.58
same,glycan array binding signal (z-score),[19],-0.352
same,glycan array binding signal (z-score),[20],-0.219
same,glycan array binding signal (z-score),[21],0.407
same,glycan array binding signal (z-score),[22],-0.192
same,glycan array binding signal (z-score),[23],-0.324
same,glycan array binding signal (z-score),[24],-0.368
same,glycan array binding signal (z-score),[25],-0.399
same,glycan array binding signal (z-score),[26],-0.384
same,glycan array binding signal (z-score),[27],-0.335
same,glycan array binding signal (z-score),[28],-0.355
same,glycan array binding signal (z-score),[29],-0.358
same,glycan array binding signal (z-score),[30],-0.394
